Patent publication US20180273573A1, “INHIBITORS OF MENAQUINONE BIOSYNTHESIS” (Memorial Sloan-Kettering Cancer Center, priority 2015, published 2018)

Experiments:
E. coli MenE (ecMenE) = E. coli MenE (ecMenE) (Escherichia coli, UniProt P37353); test: MenE-MenB coupled assay (enzyme inhibition, catalytic parameters)
Sequence of E. coli MenE (ecMenE) (P37353 whole entry): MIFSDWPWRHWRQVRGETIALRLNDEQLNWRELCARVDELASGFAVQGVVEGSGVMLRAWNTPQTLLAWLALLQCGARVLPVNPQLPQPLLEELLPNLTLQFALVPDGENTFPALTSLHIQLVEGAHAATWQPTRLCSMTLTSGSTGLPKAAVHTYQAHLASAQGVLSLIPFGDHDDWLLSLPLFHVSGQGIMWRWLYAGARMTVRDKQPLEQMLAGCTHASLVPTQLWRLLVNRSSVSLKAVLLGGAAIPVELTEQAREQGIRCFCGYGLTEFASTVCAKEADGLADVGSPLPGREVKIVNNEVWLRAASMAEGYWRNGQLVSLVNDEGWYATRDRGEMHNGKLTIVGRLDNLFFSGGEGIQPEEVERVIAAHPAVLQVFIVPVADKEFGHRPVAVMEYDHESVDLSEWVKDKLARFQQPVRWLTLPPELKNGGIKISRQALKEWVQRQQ

Row | Structure (SMILES) | IC50 (E. coli MenE (ecMenE)) | pKa (physchem)
1 | Nc1ncnc2c1ncn2[C@@H]1O[C@H](COS(=O)(=O)NC(=O)CCC(=O)c2ccccc2-c2cnco2)[C@@H](O)[C@H]1O [Compound 104, 5′-O—(N-[4-(2-(5-Oxazolyl)phenyl)-4-oxobutanoyl]sulfamoyl)adenosine] | > 100 µM | 
2 | Nc1ncnc2c1ncn2[C@@H]1O[C@H](COS(=O)(=O)NC(=O)CCC(O)c2ccccc2C(O)C(F)(F)F)[C@@H](O)[C@H]1O (some centres unmarked) [Compound 144] | > 100 µM | 11.5
3 | Nc1ncnc2c1ncn2[C@@H]1O[C@H](COS(=O)(=O)NC(=O)CCC(=O)c2ccccc2[N+](=O)[O-])[C@@H](O)[C@H]1O [Compound 103, 5′-O—(N-[4-(2-Nitrophenyl)-4-oxobutanoyl]sulfamoyl)adenosine] | > 100 µM | 
4 | Nc1ncnc2c1ncn2[C@@H]1O[C@H](COS(=O)(=O)NC(=O)CCC(=O)c2cccc(C(=O)O)c2)[C@@H](O)[C@H]1O [Compound 102, 5′-O—(N-[4″-(3′″-(Carboxyl)phenyl)-4″-oxobutanoyl]sulfamoyl)adenosine] | > 100 µM | 4
5 | Nc1ncnc2c1ncn2[C@@H]1O[C@H](COS(=O)(=O)NC(=O)CCC(=O)c2ccccc2B(O)O)[C@@H](O)[C@H]1O [Compound 139, 5′-O—(N-[4-(2-Boronophenyl)-4-oxobutanoyl]sulfamoyl)adenosine] | > 100 µM | > 14
